In publication PMC5892938:
This is one part of the list. At the low end of the ranking the order means little.

These sequences were tested against GST-SBP-SLBP (stem-loop binding protein) (UniProt Q14493) (assay: targeted RNA Bind-n-Seq). Details: RBNS binding buffer: 25 mM Tris pH 7.5, 150 mM KCl, 3 mM MgCl2, 0.1% Tween, 0.5 mg/mL BSA, 1 mM DTT; 27 nM protein, 750 pM RNA pool; temperature not stated; high values mean tight binding.
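Also: DESeq read counts versus GST-SBP nonspecific binding control pulldown.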

Row | Sequence | binding signal (log2 fold change)
1 | GGUCACGUCUCAAUCAACUCAUUUCCCAGGGAAACCCCUGGCUUUCUCAACAGCUCGCAGUCAAG | 0.075
2 | GGUCACGUCUCAAUCAACUCUCAAGAGGGGGGGAAAACCCCUUUGCCCUCAAUCUCAACAGCUCGCAGUCAAG | 0.167
3 | GGUCACGUCUCAAUCAACUCACAAGAGGGGGGGAAAACCCCUUUACCCUCCAUAUCAACAGCUCGCAGUCAAG | 0.0993
4 | GGUCACGUCUCAAUCAACUCUUUCCCCAGGGAAACCCCUGGCUAACUCAACAGCUCGCAGUCAAG | -0.152
5 | GGUCACGUCUCAAUCAACUCUAGUCCAGGAGUUUACUCCUGCAAUUUCAACAGCUCGCAGUCAAG | 0.00711
6 | GGUCACGUCUCAAUCAACUCAUCUCCCAGGGAAAUCCCUGGUUUACUCAACAGCUCGCAGUCAAG | 0.207
7 | GGUCACGUCUCAAUCAACUCUAUUCCCAGGGAAACCCCUGGCUAUUUCAACAGCUCGCAGUCAAG | 0.147
8 | GGUCACGUCUCAAUCAACUCAAUCUCAGGAGUUUCCUCCUGUAAAUUCAACAGCUCGCAGUCAAG | 0.0953
9 | GGUCACGUCUCAAUCAACUCAACUCCAGGAGUUUUCUCCUGUUUACUCAACAGCUCGCAGUCAAG | -0.0942
10 | GGUCACGUCUCAAUCAACUCUUUCGAGGGGGGGAAAACCCCUUUACCCUCAUAAUCAACAGCUCGCAGUCAAG | 0.336
11 | GGUCACGUCUCAAUCAACUCAUCUCCCAGGGAAAGCCCUGGCUAUUUCAACAGCUCGCAGUCAAG | 0.0564
12 | GGUCACGUCUCAAUCAACUCUUCUUCAGGAGUUUCCUCCUGUAAACUCAACAGCUCGCAGUCAAG | 0.0543
13 | GGUCACGUCUCAAUCAACUCAUUCCCCAGGGAAAUCCCUGGUUUACUCAACAGCUCGCAGUCAAG | 0.124
14 | GGUCACGUCUCAAUCAACUCUAUCUCCAGGGAAACCCCUGGCUAACUCAACAGCUCGCAGUCAAG | 0.366
15 | GGUCACGUCUCAAUCAACUCCAAAGAGGGGGGGAAAACCCCUUUGCCCUCAAAAUCAACAGCUCGCAGUCAAG | -0.253
16 | GGUCACGUCUCAAUCAACUCAGUCCCCAGGGAAACCCCUGGUAUAUUCAACAGCUCGCAGUCAAG | 0.0296
17 | GGUCACGUCUCAAUCAACUCUAUCCCCAGGGAAAGCCCUGGCAAACUCAACAGCUCGCAGUCAAG | 0.252
18 | GGUCACGUCUCAAUCAACUCUCUAGAGGGGGGGAAAACCCCUUUACCCUCGUCUUCAACAGCUCGCAGUCAAG | -0.261
19 | GGUCACGUCUCAAUCAACUCCAUAGAGGGGGGGAAAACCCCUUUGCCCUCAUCUUCAACAGCUCGCAGUCAAG | -0.515
20 | GGUCACGUCUCAAUCAACUCUUCUCCCAGGGAAAGCCCUGGUUAACUCAACAGCUCGCAGUCAAG | 0.335
21 | GGUCACGUCUCAAUCAACUCAUUCGAGGGGGGGAAAACCCCUUUACCCUCAAUAUCAACAGCUCGCAGUCAAG | -0.393
22 | GGUCACGUCUCAAUCAACUCCCCAGAGGGGGGGAAAACCCCUUUACCCUCCGUUUCAACAGCUCGCAGUCAAG | -0.195
23 | GGUCACGUCUCAAUCAACUCUACUUCAGGAGUUUUCUCCUGCAAUCUCAACAGCUCGCAGUCAAG | 0.0382
24 | GGUCACGUCUCAAUCAACUCACAAGAGGGGGGGAAAACCCCUUUACCCUCCAAUUCAACAGCUCGCAGUCAAG | 0.0513
25 | GGUCACGUCUCAAUCAACUCUUUUGCAGGAGUUUUCUCCUGGUAUCUCAACAGCUCGCAGUCAAG | 0.025

Row | Sequence | binding signal (log2 fold change)
26 | GGUCACGUCUCAAUCAACUCUUCCCCAGGAGUUUUCUCCUGUAAUGUCAACAGCUCGCAGUCAAG | 0.112
27 | GGUCACGUCUCAAUCAACUCUAUCCCCAGGGAAAGCCCUGGCAUUUUCAACAGCUCGCAGUCAAG | 0.292
28 | GGUCACGUCUCAAUCAACUCUUCCUCAGGAGUUUCCUCCUGUAUUUUCAACAGCUCGCAGUCAAG | -0.0517
29 | GGUCACGUCUCAAUCAACUCAAUUCCAGGAGUUUUCUCCUGUUAAUUCAACAGCUCGCAGUCAAG | 0.0988
30 | GGUCACGUCUCAAUCAACUCAGUCUCAGGAGUUUACUCCUGCAUUCUCAACAGCUCGCAGUCAAG | -0.00986
31 | GGUCACGUCUCAAUCAACUCUCUGGAGGGGGGGAAAACCCCUUUACCCUCAUCAUCAACAGCUCGCAGUCAAG | -0.387
32 | GGUCACGUCUCAAUCAACUCAUCUCCCAGGGAAAACCCUGGCUUUCUCAACAGCUCGCAGUCAAG | -0.0926
33 | GGUCACGUCUCAAUCAACUCAUCUUCCAGGGAAAUCCCUGGCAAUUUCAACAGCUCGCAGUCAAG | 0.0192
34 | GGUCACGUCUCAAUCAACUCAUCCUCAGGAGUUUCCUCCUGCAAACUCAACAGCUCGCAGUCAAG | 0.314
35 | GGUCACGUCUCAAUCAACUCUUCUCCAGGAGUUUACUCCUGUAUUCUCAACAGCUCGCAGUCAAG | -0.0838
36 | GGUCACGUCUCAAUCAACUCAGUUCCAGGAGUUUUCUCCUGCAAAUUCAACAGCUCGCAGUCAAG | -0.148
37 | GGUCACGUCUCAAUCAACUCAAUCCCAGGAGUUUUCUCCUGCUUAGUCAACAGCUCGCAGUCAAG | 0.111
38 | GGUCACGUCUCAAUCAACUCAUCGGAGGGGGGGAAAACCCCUUUACCCUCAAAAUCAACAGCUCGCAGUCAAG | -0.0467
39 | GGUCACGUCUCAAUCAACUCAUCUUCCAGGGAAAACCCUGGUUUUCUCAACAGCUCGCAGUCAAG | 0.255
40 | GGUCACGUCUCAAUCAACUCAUCGCCCAGGGAAAACCCUGGUUAAUUCAACAGCUCGCAGUCAAG | -0.239
41 | GGUCACGUCUCAAUCAACUCAAUCUCCAGGGAAAACCCUGGUAUUCUCAACAGCUCGCAGUCAAG | 0.127
42 | GGUCACGUCUCAAUCAACUCAUCGUCCAGGGAAAACCCUGGCUAAUUCAACAGCUCGCAGUCAAG | 0.202
43 | GGUCACGUCUCAAUCAACUCAUUCGCAGGAGUUUACUCCUGGUUUUUCAACAGCUCGCAGUCAAG | 0.0271
44 | GGUCACGUCUCAAUCAACUCACACGAGGGGGGGAAAACCCCUUUACCCUCACACUCAACAGCUCGCAGUCAAG | -0.287
45 | GGUCACGUCUCAAUCAACUCUUCUCCCAGGGAAAUCCCUGGCUAUUUCAACAGCUCGCAGUCAAG | 0.236
46 | GGUCACGUCUCAAUCAACUCUUCUUCCAGGGAAAGCCCUGGUAUUCUCAACAGCUCGCAGUCAAG | -0.265
47 | GGUCACGUCUCAAUCAACUCUUACGAGGGGGGGAAAACCCCUUUACCCUCAAUUUCAACAGCUCGCAGUCAAG | -0.125
48 | GGUCACGUCUCAAUCAACUCAUCGCCCAGGGAAAGCCCUGGUAAUCUCAACAGCUCGCAGUCAAG | -0.213
49 | GGUCACGUCUCAAUCAACUCAUUCUCAGGAGUUUACUCCUGCAUAUUCAACAGCUCGCAGUCAAG | -0.0629
50 | GGUCACGUCUCAAUCAACUCUUUCCCAGGAGUUUUCUCCUGCAAUGUCAACAGCUCGCAGUCAAG | 0.0482

Row | Sequence | binding signal (log2 fold change)
51 | GGUCACGUCUCAAUCAACUCAAAAGAGGGGGGGAAAACCCCUUUGCCCUCAUCGUCAACAGCUCGCAGUCAAG | -0.217
52 | GGUCACGUCUCAAUCAACUCAAUCUCCAGGGAAAGCCCUGGUUUACUCAACAGCUCGCAGUCAAG | 0.242
53 | GGUCACGUCUCAAUCAACUCAUCCCCCAGGGAAAGCCCUGGUAUACUCAACAGCUCGCAGUCAAG | 0.0323
54 | GGUCACGUCUCAAUCAACUCCUCAGAGGGGGGGAAAACCCCUUUGCCCUCAUUAUCAACAGCUCGCAGUCAAG | -0.604
55 | GGUCACGUCUCAAUCAACUCAUACGAGGGGGGGAAAACCCCUUUACCCUCACACUCAACAGCUCGCAGUCAAG | -0.06
56 | GGUCACGUCUCAAUCAACUCAUCCUCAGGAGUUUCCUCCUGUAUAUUCAACAGCUCGCAGUCAAG | 0.207
57 | GGUCACGUCUCAAUCAACUCCUUAGAGGGGGGGAAAACCCCUUUACCCUCCCAAUCAACAGCUCGCAGUCAAG | -0.243
58 | GGUCACGUCUCAAUCAACUCUUCCCCAGGAGUUUUCUCCUGCAUUUUCAACAGCUCGCAGUCAAG | 0.121
59 | GGUCACGUCUCAAUCAACUCUAUGUCCAGGGAAACCCCUGGUUUUCUCAACAGCUCGCAGUCAAG | 0.0996
60 | GGUCACGUCUCAAUCAACUCAUGUCCAGGAGUUUCCUCCUGCUUAUUCAACAGCUCGCAGUCAAG | 0.0646
61 | GGUCACGUCUCAAUCAACUCUUCCUCCAGGGAAAUCCCUGGUAUAUUCAACAGCUCGCAGUCAAG | 0.00444
62 | GGUCACGUCUCAAUCAACUCUUCUCCCAGGGAAAACCCUGGUAUAUUCAACAGCUCGCAGUCAAG | -0.0345
63 | GGUCACGUCUCAAUCAACUCUUUCCCCAGGGAAAUCCCUGGCAAACUCAACAGCUCGCAGUCAAG | -0.131
64 | GGUCACGUCUCAAUCAACUCAACUUCAGGAGUUUACUCCUGUAUAUUCAACAGCUCGCAGUCAAG | -0.147
65 | GGUCACGUCUCAAUCAACUCAUCCUCCAGGGAAAACCCUGGUUUAUUCAACAGCUCGCAGUCAAG | 0.133
66 | GGUCACGUCUCAAUCAACUCAUCGCCAGGAGUUUUCUCCUGCAAAUUCAACAGCUCGCAGUCAAG | -0.0314
67 | GGUCACGUCUCAAUCAACUCUUCAGAGGGGGGGAAAACCCCUUUACCCUCAUUUUCAACAGCUCGCAGUCAAG | 0.169
68 | GGUCACGUCUCAAUCAACUCUAUCGAGGGGGGGAAAACCCCUUUACCCUCCAAUUCAACAGCUCGCAGUCAAG | 0.0885
69 | GGUCACGUCUCAAUCAACUCAAUUCCAGGAGUUUACUCCUGUUUUCUCAACAGCUCGCAGUCAAG | 0.11
70 | GGUCACGUCUCAAUCAACUCUAUCGAGGGGGGGAAAACCCCUUUACCCUCACACUCAACAGCUCGCAGUCAAG | 0.573
71 | GGUCACGUCUCAAUCAACUCAUCCCCAGGAGUUUUCUCCUGCAAACUCAACAGCUCGCAGUCAAG | -0.235
72 | GGUCACGUCUCAAUCAACUCAACUUCCAGGGAAAGCCCUGGCUAUUUCAACAGCUCGCAGUCAAG | 0.217
73 | GGUCACGUCUCAAUCAACUCAUCCCCAGGAGUUUUCUCCUGUAAACUCAACAGCUCGCAGUCAAG | 0.123
74 | GGUCACGUCUCAAUCAACUCAAUUUCAGGAGUUUACUCCUGCAUAUUCAACAGCUCGCAGUCAAG | -0.00674
